Here are results for one compound from PubChem BioAssay (NCI).

Some structures have more than one record in an assay (separate samples or runs), and their calls can disagree.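 The endpoint reported here, percent growth, reads 100 for growth as untreated, 0 for no net growth and -100 for all cells dead.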 Some entries of the source have several records that differ or are many. They are shown here; other results are not. The calls were made as follows: active = growth percent below 10; inactive = the rest. The source may hold further records. This drug was run again and again over the years, at its own concentration, as given; one value stands for one run. Marks such as (2×) count equal records among those shown.

The subject of the test is SK-OV-3 ovarian. In words: NCI-60 one-dose screen, 48 h (100 = growth as untreated, 0 = no growth, -100 = all killed).

With `COc1cccc2c1C(=O)c1c(O)c3c(c(O)c1C2=O)C[C@@](O)(C(=O)CO)C[C@@H]3OC1CC(N)C(O)C(C)O1` (stereo not given in full), the growth result (0.25 µM, runs of 2014) was “inactive: 59.1, 48.4, 38.1, 25.8, 33.5, 38.6, 35.7, 33.8, 32.2, 56.6 (2×), 22, 67, 26.6, 31, 44.6, 34.5, 48.2, 28.6, 66.4, 43.7, 44.4, 45.5, 48.7, 55, 38.2, 34.3, 44.8, 43.3, 41.6, 44.5, 61.6, 63.3, 56.3, 54.6, 51.2, 58.7, 57.9, 51.4 (2×), 54, 41.9, 42.3, 39.8, 46.6, 25.7, 38, 27.8, 32.7, 40.2, 45, 32, 37.7, 29.1, 30.4, 29.6 (2×), 26.1, 43.2, 38.8, 39.1, 39.9, 43.9, 36.9, 35.9, 38.9, 40.3, 27.7, 29.5, 35, 30.6, 28.3, 30, 29.4%”; the growth entry (0.25 µM, runs of 2015) was “inactive: 42.5 (2×), 43.3, 46, 44.6 (2×), 44.4, 41.6 (3×), 28.4, 38.6, 37, 33 (2×), 37.8, 49, 36.8, 25.8 (2×), 12.3, 28, 30.7, 16.6, 43.1, 31.9, 42.3, 42.6 (2×), 34.9 (2×), 41.3, 35.7, 40.3 (2×), 46.5, 29.1, 43 (2×), 42.8, 30.9, 44, 52.3, 38.7 (2×), 50.2, 30.3, 37.3 (2×), 44.5 (2×), 34.3, 50.1, 61.9, 56.9, 52.1, 57.9, 64.8, 48.9, 45.6, 43.2, 43.8, 59.3, 51.1, 51.4, 31.7, 33.4, 42.2, 48.1, 45.4, 36.5, 40.7, 44.8, 40.4, 38.3, 36.3, 40, 46.1%”; the growth entry (0.25 µM, runs of 2016) was “inactive: 51.7 (2×), 44.6, 42.7, 56.5, 54.6, 43.6 (2×), 46, 36.8 (2×), 37.6, 39.3, 48.5 (3×), 32.3, 47.9, 45.8, 44.4 (2×), 27.1, 38.7 (2×), 46.2, 34.2, 33.8, 36.3, 29.7 (2×), 41.4, 31.3, 35.3, 31.5, 34.5, 43.9, 44.1, 38.2, 44.7, 43.1 (2×), 48.6, 39.5, 52.5 (2×), 54, 44.9, 36.2, 47.4, 49.7 (2×), 57.6, 47.7, 56.9, 50.7, 61.5, 44.5, 58.3, 64, 49.1, 58.9, 77.9, 50, 71.9, 57.5, 63.9, 69, 77, 74.6, 51, 62.2, 58.5, 54.7, 59.6, 62.6, 59.9, 67.9, 37.8, 56.7, 46.9, 49.3, 48.8%”; the growth entry (0.25 µM, runs of 2017) was “inactive: 44 (2×), 45.8, 27.3, 45.6 (3×), 43.6, 45.5 (2×), 25.4, 38.4 (2×), 32.2 (2×), 33.7, 38.3 (2×), 29.6 (3×), 34.2, 44.9, 42, 38.5, 36.7, 32.1, 41.3, 11.6, 39.2 (2×), 35.9, 40.3, 41.9 (2×), 42.5, 39, 51.8, 45.3, 52.9, 35.6, 43.3 (2×), 45, 42.2, 47 (2×), 43 (2×), 39.4, 47.6, 79.7, 78.9, 81.4, 94, 44.8, 33.5, 37.8, 48.2, 36.2 (2×), 47.7, 40.6 (2×), 28.7, 34.9 (2×), 31.6, 37.4 (2×), 33.1, 35.7, 39.9 (2×), 46.1, 44.7, 50, 50.7, 61, 59.2, 46, 31.7, 67.9, 66.1, 39.6, 38.6%”; the growth result (0.25 µM, runs of 2018) is “inactive: 34.3, 32.3 (2×), 35.8, 39.3 (2×), 38.6, 36.3, 44.3, 37, 47.4, 44.7, 50.6, 33.8, 57.6, 53.5, 47.6, 46.3, 39.2, 34.5 (2×), 45, 54.8, 57.4, 48.3, 33, 38.3, 36.5, 35.5, 31, 30.5, 28.2, 24.6, 19.7, 26.3, 30, 25.5, 23.3, 26.2, 18.7, 25.2 (2×), 26.5, 27.4, 39.6, 43.4, 21.7%”; the growth entry (0.25 µM, runs of 2019) was “inactive: 37.7, 28.3, 32.2, 29.5, 28.1, 35.1, 36.4, 38.6 (2×), 28.9, 48.4, 33.2, 41.8 (2×), 39.9, 44.3, 38.8 (4×), 47.8, 33.1, 41.4, 30.3, 34.4, 23, 25.4, 26.1, 27.7, 26.8, 40.8, 60.7, 31.8, 28.4, 21.7, 27.1%”. Also, the growth result is, setting by setting: (0.25 µM, runs of 2020) “inactive: 11.6, 23.4, 23 (2×), 22.9, 52.5 (2×), 37.6 (2×), 44.9, 43.2, 29.6, 53.9, 38, 42, 48.1, 44.1, 54.9, 41.8, 47.2, 44.8, 48.7, 37.3, 41.9, 73.1%”; (0.25 µM, runs of 2021) “inactive: 58.6, 49, 50.6, 49.9, 30.6 (2×), 37.8, 53.1, 42.1, 38, 36.7, 32.1, 61.6, 48.9, 50.4, 34, 46.7, 41.3 (2×), 27.2, 28.7 (2×), 34.9, 40.9, 37.6, 19.2, 16.1, 27.1, 52.3, 49.3, 46.3, 44, 43.9, 35, 46.2, 24.8, 19.5, 27.8, 33, 15, 15.7, 30.7, 27.5, 25.6, 50.9, 45.4, 34.1% and active: 5.44%”; (0.25 µM, runs of 2022) “active: 3.39%, 5.76%, 9.23% and inactive: 51.7, 64.8, 10.5, 18.3, 15.4, 36.2, 29.5, 39.9, 48.2, 32.4, 24.9, 25.7, 29.2, 79, 95.1, 49, 84.1, 89.7, 35.2, 35.5, 39.1, 38.2, 30.6%”; (25 µM, runs of 1991) “active: -7.7, -42.2, 4.58, -22, -27.9, -11.2, 2.19, -18.9, -81.7, -8.87, 5.22, -20.8, -1.88, -17.9, -20.9%”; (25 µM, runs of 1992) “active: 0.457, -21.7, 4.94 (2×), -20.8, -13.7, -2.67, 0.807, 2.48, -11.7, -23.9 (3×), -9.81, -14.8, -1.22, 1.94, -17.8, -3.41, -20.9 (2×), -6.46, -14.3, -24, 0, -2.73, 1.5, 0.529, -11.4, 6.81, -11.8 (2×), -6.1, -1.73, -5.38, -31, -0.301, -10.3, -8.65, -21.5 (2×), -11.2, 0.341, -21.6, -13.5, -22.4 (2×), -14.7, -26.3, -17, 4.28, -5.04, 6.8, -12.6, -15.6, -15.9 (2×), 7.29, -27.5, -6.05, -33.1, -6.12, -7.12, -37, -38.7, -15.1, 1.83, -14.5, -17.9, 3.9, -8.38, 4.78, -0.0775, 2.54, -40.2, -23.4, -5.73, -25.9, -94.2, -10.2, -12.4, -18.4, -15.2 (3×), 4.22, -0.584, -10, -7.88, -28.9, 3.01, -11.3, 0.343, -2.25, -29.9, -27.6, -82.4, -17.4, 4.79, -16.8, -40.6, -16.4, 5.18, -9.67, -11.5, -7.97, -21.3, -17.7, -1.51% and inactive: 16.1, 13.2, 70.2, 19.3, 36.2, 12.3, 10, 10.1 (2×), 44, 10.5, 12.5%”; (25 µM, runs of 1993) “active: -11.4, 8.97, -21.9, -21.3, -20.6, 0, -18.8, -18, -1.43, 4.91, -6.9, -6.24, -21.7, 9.61, 0.279, -18.4, -15.6, -17.4, -2.23, 2.95, -35.4, -9.8, -32.1, 5.45, -13.9, -26.1, -29.5, -18.7, 5.27, -8.23, 1.11, -21 (2×), 1.02, -35, -2.9, 4.77, -2.97, -21.8, 6.11, -20.3% and inactive: 14.4%, 15.5%, 12.7%”. In addition, the growth entry is “active: 5.64, -1.27, -11.3, -0.575, 0.093, 6.96, -0.957, 6.67, -4.34, -14.4, -25.9, -29.2, -3.09, -32.1, 5.95, -28.8, -6.19, -4.71, 9.4, -46.3, -29.1, 4.78, -36, 1.64, -3.9, -14.2, 3.01, -20.2, -11.6, -15, -29.6, -10.8% and inactive: 103%, 10.2%, 23.4%” (25 µM, runs of 1994); “active: 3.85, 4.79, -29.4, -4.12, -3.68, -30.5, 8.54, -15.1, 9.44, -4.62, 1.91, -9.81, -22.8, -59.5, -9.28, -22.6, -20.8, -0.172, -10.6, -6.34% and inactive: 16.1, 16.3, 24.8, 21%” (25 µM, runs of 1995); “active: 9.1, -21.8 (2×), -1.42, 1.81, 3.29, 8.86, -6.89, -1.76, -0.724, -4.58, -15.8, -0.447, -10.1, -23.3, 6.42, 2.72, 4.17, -8.03, -0.588, 4.83, 9.24, 5.5, -7.82, -18.4, 6.05, -6.88, 3.17, 0.132, -1.49, -32, -20.4, 4.68, 0.193, 7, -33.8% and inactive: 24.4, 26.2 (2×), 21.8, 93.1, 19, 14.8, 14.2, 64.9, 36.9, 13.3 (2×), 11.7, 12.8, 25.1, 18, 27.5, 11.4, 14.5%” (25 µM, runs of 1996).
